# Several values for one entry are separate records, joined by “and”; a condition that tells them apart may be missing. Identical values can stand only once. The list shows a part of the results. The main result of the screen is listed elsewhere. These columns were measured beside it and carry no call. For part of these data: Most of these compounds were active or inconclusive in the main read-out, so they are no random draw. For part of these data: The note in brackets gives the kind of curve behind each potency; many fits are weak.
# Tests used:
# [1] = qHTS Assay for Lipid Storage Modulators (AID 1519); conditions: Drosophila S3 cells, BODIPY lipid droplet/cell ratio, laser cytometry, cells loaded with oleic acid
# How it was run: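 Cells seeded at 5,000 per well were treated with compounds over a concentration series and loaded with oleic acid (400 uM, as added). Lipid droplet fluorescence (488 nm excitation, 500-530 nm channel) was read by laser-scanning cytometry and normalized to 20 uM Triacsin C.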
# [2] = qHTS Assay for Modulators of Human Peripheral Myelin Protein 22 (PMP22) Expression/Activity (AID 1967); conditions: Cell-based PMP22 reporter, dual-color luciferase ratio
# How it was run: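 Quantitative HTS in a mouse Schwann cell line expressing dual click beetle luciferases: Pmp22 promoter (green) and control EF-alpha promoter (red). After 24h treatment, corrected green/red signal ratio gave %Activity relative to untreated cells.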
# [3] = qHTS Validation Assay to Find Inhibitors of Chronic Active B-Cell Receptor Signaling (AID 485345); conditions: ABC-DLBCL cells, chronic BCR signaling reporter
# How it was run: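 Read-out: ratio of filter-corrected green (IkappaBalpha fusion) to red (native) luciferase signal in doxycycline-induced TMD8 cells after 4 h at 37C. Titration spanned 46 uM–3 nM; Data were normalised to basal cells and 10 uM MG-132 wells.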
# [4] = qHTS for identification of novel therapeutic agents for treatment of microphthalmiaassociated transcription factor (MiT) renal cell carcinoma (RCC) (AID 1963991); conditions: CellTiter-Glo, 48 h; for z-score: stronger effect = lower value
# How it was run: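 Three TFE3-fusion RCC cell lines (UOK109, UOK124, UOK145), 500 cells/well, were exposed to the 1912-compound MIPE 4.0 library for 48 hours at 37 C. Viability was read by CellTiter-Glo luminescence, normalised to DMSO (100%) and empty wells (0%), with 11-concentration curve fits.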
# [5] = qHTS assay for small molecule agonists of retinoid X receptor alpha signaling (AID 588544); conditions: HEK293T RXRa-UAS-bla, beta-lactamase reporter, 18 h; 530 nm emission
# [6] = qHTS drug screen for cell cycle checkpoint inhibitors in PARPi-resistant BRCA-mutant ovarian cancer cell lines. (AID 1963452); conditions: PEO1/OlaR viability, CellTiter-Glo luminescence, 96 h; measured here: PEO1 parental viability
# How it was run: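 PEO1, PEO4 and PEO1/OlaR ovarian cancer cells, 600 per well, exposed 96 h at 37C to a dilution series. Viability read by CellTiter-Glo luminescence, normalized to DMSO and empty wells; activity summarized as Z-AUC.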
# [7] = S16 Schwann cell PMP22 intronic element beta-lactamase assay (AID 624044); conditions: S16 rat Schwann cells, PMP22 element beta-lactamase FRET, 24 h; further: nearly all actives have a fitted effect of over 15% in size
# How it was run: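 Rat S16 Schwann cells with beta-Lac driven by a PMP22 intronic element, compound-treated 24 h at 37 °C. LiveBLAzer FRET B/G read: 460 nm normalized to potassium clavulanate vs DMSO; 535 nm FRET as viability; concentration-effect curves classified.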
# [8] = measured here: cell count channel max response
# [9] = measured here: lipid (BODIPY) channel AC50
# [10] = measured here: lipid channel max response
# [11] = measured here: red reporter channel AC50, EF-alpha promoter control reporter in MSC80 mouse Schwann cells
# [12] = measured here: CBR control luciferase (viability counter)
# [13] = TFE3-RCC UOK109 viability, measured here: UOK109 Z-AUC
# [14] = TFE3-RCC viability, measured here: UOK124 Z-AUC
# [15] = TFE3-RCC viability, measured here: UOK145 Z-AUC
# [16] = measured here: cell number channel AC50
# [17] = measured here: green reporter channel AC50, mouse Pmp22 promoter in mouse Schwann cells
# [18] = TFE3-RCC viability, measured here: UOK124 cell viability
# [19] = TFE3-RCC viability, measured here: UOK145 cell viability
# [20] = measured here: 460 nm blue channel
# Tags describe the fitted curve by direction and shape.
smiles,measurement,setting,value
C[C@]12C=CC(=O)C=C1CC[C@H]1[C@@H]3C[C@@H](O)[C@](O)(C(=O)CO)[C@@]3(C)C[C@H](O)[C@@]12F,max response,[1]; [8],18%
same,AC50,[1]; [9],"15.8 µM [falling, partial curve, poor fit]"
same,max response,[1]; [10],15.8%
same,AC50,[2]; [11],"75.7 µM [falling, single point]"
same,AC50,[3]; [12],"0.0146 µM [rising, full curve]"
O=C1C(CCC(O)c2ccc(F)cc2)C(c2ccc(O)cc2)N1c1ccc(F)cc1 (configuration not stated),max response,[1]; [8],25.2%
same,AC50,[1]; [9],"22.4 µM [rising, single point]"
same,max response,[1]; [10],44.1%
same,z-score,[4]; [13],0.324
same,z-score,[4]; [14],0.791
same,z-score,[4]; [15],0.427
Cn1c(=O)[nH]c2ncn(C)c2c1=O,max response,[1]; [8],38%
same,AC50,[1]; [16],"0.0447 µM [falling, partial curve, poor fit]"
same,max response,[1]; [10],37.3%
same,AC50,[2]; [11],"84.9 µM [falling, single point]"
CC(C)OC(=O)C(C)(C)Oc1ccc(C(=O)c2ccc(Cl)cc2)cc1,max response,[1]; [8],16% and 46.7%
same,AC50,[1]; [9],"39.8 µM [rising, single point]"
same,max response,[1]; [10],36.7% and 47.2%
same,AC50,[2]; [17],"95.3 µM [falling, single point]"
same,AC50,[2]; [11],"95.3 µM [falling, single point]"
same,max response,[5],10.3%
same,z-score,[4]; [13],0.148
same,z-score,[4]; [14],0.372
same,z-score,[4]; [15],0.296
Cn1cnc2c1c(=O)[nH]c(=O)n2C,max response,[1]; [8],26.4%
same,AC50,[1]; [9],"39.8 µM [rising, single point]"
same,max response,[1]; [10],45.7%
same,AC50,[2]; [11],"84.9 µM [falling, single point]"
same,AC50,[3]; [12],"4.11 µM [rising, full curve]"
same,z-score,[4]; [13],0.782
same,z-score,[4]; [14],-0.105
same,AC50,[4]; [18],"18.7 µM [falling, partial curve]"
same,z-score,[4]; [15],0.315
same,AC50,[4]; [19],"26.4 µM [falling, partial curve]"
COc1cc2ncnc(Nc3cccc(Br)c3)c2cc1OC,max response,[1]; [8],20%
same,AC50,[1]; [16],"1.12 µM [rising, full curve, poor fit]"
same,max response,[1]; [10],32.1%
same,AC50,[6],"15.5 µM [falling, single point]"
same,z-score,[4]; [13],-3.3
same,z-score,[4]; [14],-0.162
same,AC50,[4]; [18],"0.00105 µM [falling, full curve, poor fit]"
same,z-score,[4]; [15],-1.78
same,AC50,[4]; [19],"3.72 µM [falling, partial curve]"
O=C(O)CCCCCCCC(=O)O,max response,[1]; [8],22.9% and 54.2%
same,AC50,[1]; [9],"28.2 µM [rising, single point]"
same,max response,[1]; [10],35.8% and 53.1%
same,AC50,[2]; [11],"95.3 µM [falling, single point]"
COCCc1ccc(OCC(O)CNC(C)C)cc1 (configuration not stated),max response,[1]; [8],25%
same,AC50,[1]; [9],"0.112 µM [rising, full curve, poor fit]"
same,max response,[1]; [10],35.9%
same,AC50,[2]; [11],"12 µM [rising, partial curve, poor fit]"
Cc1ccccc1C(OCCN(C)C)c1ccccc1 (configuration not stated),max response,[1]; [8],24.5%
same,AC50,[1]; [9],"39.8 µM [rising, single point]"
same,max response,[1]; [10],37.7%
same,AC50,[2]; [17],"75.7 µM [falling, partial curve, poor fit]"
same,AC50,[2]; [11],"95.3 µM [falling, single point]"
same,z-score,[4]; [13],0.675
same,z-score,[4]; [14],0.684
same,z-score,[4]; [15],0.526
c1ccc(C2CN3CCSC3=N2)cc1 (configuration not stated),max response,[1]; [8],30.5%
same,AC50,[1]; [16],"0.0251 µM [falling, full curve, poor fit]"
same,max response,[1]; [10],28.7%
same,AC50,[2]; [17],"30.1 µM [rising, single point]"
same,AC50,[2]; [11],"30.1 µM [rising, single point]"
CC[C@@]1(O)C(=O)OCc2c1cc1n(c2=O)Cc2cc3c(CN(C)C)c(O)ccc3nc2-1,max response,[1]; [8],-25%
same,AC50,[1]; [9],"1.58 µM [falling, full curve, poor fit]"
same,max response,[1]; [10],-31%
same,AC50,[7]; [20],"7.94 µM [falling, partial curve]"
same,AC50,[7]; measured here: 530 nm viability channel,"12.6 µM [rising, partial curve]"
same,AC50,[4]; [18],"0.833 µM [falling, full curve]"
same,AC50,[4]; [19],"0.833 µM [falling, full curve]"
COc1ccc(CCN(C)CCCC(C#N)(c2cc(OC)c(OC)c(OC)c2)C(C)C)cc1OC (configuration not stated),max response,[1]; [8],58%
same,AC50,[1]; [9],"15.8 µM [falling, single point]"
same,max response,[1]; [10],57.1%
same,AC50,[2]; [17],"84.9 µM [falling, single point]"
same,AC50,[2]; [11],"84.9 µM [falling, single point]"
same,AC50,[7]; [20],"25.1 µM [falling, partial curve, poor fit]"
O=C(O)/C=C/C(O)c1ccc(Cl)cc1 (configuration not stated),max response,[1]; [8],-28.3%
same,AC50,[1]; [16],"20 µM [falling, single point]"
same,max response,[1]; [10],-36.9%
same,AC50,[2]; [17],"67.5 µM [falling, partial curve, poor fit]"
N#C/C(=C\c1ccc(O)c(O)c1)C(=O)Nc1ccccc1,max response,[1]; [8],31.4%
same,AC50,[1]; [16],"1.78 µM [rising, full curve, poor fit]"
same,max response,[1]; [10],-4.17%
same,AC50,[2]; [11],"47.8 µM [falling, partial curve]"
same,AC50,[3]; measured here: CBG/CBR ratio read-out,"20.6 µM [falling, partial curve]"
same,AC50,[3]; [12],"8.2 µM [falling, partial curve]"

# Source: PubChem BioAssay (NCATS)
